Screen size: about 150,000 compounds; about 540 (0.36%) showed an effect of 50% or more. The list shows a part of the results.

The test concerns Plasmodium falciparum. Description: Primary screen in NF54 nanoGlo assay, in single point, at 2uM, 72h; a lower Z score goes with more inhibition. In kind it is functional, Erythrocyte. The following applies: timepoint 72 hour.
Turning to `CCCc1ncc(CNc2cccc(C(=O)O)n2)o1`, the % Inhibition (commonly the relative decrease from the control value, in per cent) is reported as -11% and the Z score is on record as 1.49.

As for `CNC(=O)c1cc(S(=O)(=O)N2CC=CC2)cn1C`, the “% Inhibition” value is -4% and the Z score was 0.78.

For the compound `Cc1nccn1C1CN(C(=O)CC2CCCC2)C1`, the “% Inhibition” value is listed as -9% and the Z score is 1.15.

For the compound `CS(=O)(=O)c1cccc(C(=O)N2CCC[C@H]2c2nnc3ccccn23)c1`, the “% Inhibition” value is listed as -9% and the Z score amounted to 1.23.

Take `Cc1c(COc2ccc(N)cc2F)cnn1C`: the “% Inhibition” value was 32% and the Z score was -3.67.

As to `Cc1cc(C)c(C(=O)NC[C@H]2CCNCC2(F)F)o1`, the “% Inhibition” value is recorded as -6% and the Z score is on record as 1.16.

With `C[C@@]1(C(=O)NCc2ccccc2)CCC(=O)N1Cc1cccs1`, the “% Inhibition” value is given as 4% and the Z score was -0.48.

As for `Cn1nc(C(F)(F)F)c(COC(=O)c2ccc(Cl)cc2)c1Oc1ccc(Cl)cc1`, the “% Inhibition” value amounted to 2% and the Z score was -0.25.

For `O=C(Nc1nc(C2CC3CCC2C3)cs1)N1CCCC1c1ccncc1` (stereo unspecified), the “% Inhibition” value is given as -10% and the Z score turned out to be 1.6.

As for `CN1CCCCC[C@H]1C(=O)NCCc1ccc(Cl)cc1`, the “% Inhibition” value came out at 13% and the Z score was -1.18.

For `Cc1ccc(CN2CCC[C@H](CNC(=O)c3cnco3)C2)cc1C`, the “% Inhibition” value was -8% and the Z score is given as 1.44.

With `COc1cc(C)nc(CN[C@H]2CCc3sc(Cl)cc32)c1`, the “% Inhibition” value is 11% and the Z score is -1.46.

In the case of `CC(C)N1CCC(Cc2ccc(CCNC(=O)C3CCOCC3)cc2)CC1`, the “% Inhibition” value was found to be 6% and the Z score is given as -0.66.

Take `Cc1cnn(CCNC(=O)[C@H](C)N2CCCC2)c1`: the “% Inhibition” value is -14% and the Z score stood at 1.34.

For the compound `COc1cccc(CN2CC[C@H]3C(=O)NCCCCCCN(Cc4ccncc4)[C@@H]3C2)n1`, the “% Inhibition” value is recorded as -5% and the Z score is on record as 0.65.

For the compound `CN(CCN1CCCCC1=O)C(=O)c1ccc[nH]1`, the “% Inhibition” value was -5% and the Z score was 0.76.

For the compound `C[C@@H](CCNC(=O)C1=Cc2ccccc2OC1)N1CCCC1`, the “% Inhibition” value was -10% and the Z score is 1.6.

Turning to `O=C(Nc1ccc(F)cc1)Nc1ccnn1C1CCCCC1`, the “% Inhibition” value is 15% and the Z score is reported as -1.7.

For `O=C1CN(c2ccc(NC(=O)C[C@@H]3C=CCC3)cn2)CCN1`, the “% Inhibition” value is -13% and the Z score was found to be 1.15.

As to `CCCn1cc(C(=O)N[C@H]2C[C@H](c3nnc(Cn4cccn4)n3C)C2)c(C)n1`, the “% Inhibition” value is on record as -26% and the Z score was 2.56.

`Cc1ccc(C(C)(O)CNC2CCCC(C(F)(F)F)C2)o1` (stereo unspecified): the “% Inhibition” value is listed as -15% and the Z score stood at 2.

Turning to `CC1CC(NC(=O)NCCCC2CCCCO2)CC(C)O1` (stereo unspecified), the “% Inhibition” value was found to be 28% and the Z score is listed as -3.8.

Turning to `c1ccc(-c2csc(CN3C[C@H]4CC[C@@H](C3)N(CC3CC3)C4)n2)cc1`, the “% Inhibition” value is -25% and the Z score is 2.64.

Take `O=C(N[C@H]1COC[C@H]1NC(=O)c1ccncc1F)c1ccncc1F`: the “% Inhibition” value worked out at 0% and the Z score is 0.02.

For `Cc1cc(C)cc(NC[C@H](O)COC(C)C)c1`, the “% Inhibition” value is recorded as -10% and the Z score was determined as 1.29.

As for `C[C@]1(O)CCN(C(=O)c2cc(Cl)ccc2F)C[C@@H]1O`, the “% Inhibition” value is listed as -2% and the Z score is on record as 0.34.

On to `CC(NC(=O)C1CCC(=O)N1)c1csc2ccccc12` (stereo unspecified), for which the “% Inhibition” value was -2% and the Z score is reported as 0.32.

For the compound `CN(C)c1cccc(CNCc2c[nH]nc2-c2cccnc2)c1`, the “% Inhibition” value is given as -4% and the Z score was determined as 0.81.

For `COc1ccc(CCNC(=O)c2c(-c3cccnc3)noc2C)cc1OC`, the “% Inhibition” value is 10% and the Z score is -1.79.

On to `CCCN(CCC)C(=O)c1csc(CN(Cc2ccc(F)cc2)Cc2ccc(Cl)cc2)n1`, for which the “% Inhibition” value was -6% and the Z score is 0.62.

Regarding `CC(C)n1ccc(C(=O)N2CCn3c2nc2ccccc23)n1`, the “% Inhibition” value is given as 7% and the Z score is given as -0.76.

Consider `Cc1nc2ccc(CNC(=O)[C@H](C)c3ccc(O)cc3)cc2[nH]1`, for which the “% Inhibition” value was 6% and the Z score is on record as -1.08.

For `Cc1ccc(NC(=O)N2CCOCCC2C)cc1NC(=O)N1CCOCCC1C` (stereo unspecified), the “% Inhibition” value is -5% and the Z score stood at 0.55.

As for `COc1cc(C(=O)N[C@H]2CN(C)C[C@@H]2OC)ccn1`, the “% Inhibition” value is reported as -5% and the Z score is recorded as 0.95.

With `CCN1CCC[C@@H]1CN1Cc2ccc(C(=O)NCc3nccs3)cc2C1=O`, the “% Inhibition” value is -15% and the Z score is on record as 2.05.

Turning to `CC(C)N1CCc2cc(-c3nccn3CCN3CCOC3=O)ccc21`, the “% Inhibition” value came to 21% and the Z score is reported as -2.77.

Consider `CC(C)C(=O)N1CC(C)(C)c2cc(S(=O)(=O)N(Cc3ccco3)C3CCCCC3)ccc21`, for which the “% Inhibition” value is 15% and the Z score is reported as -1.76.

In the case of `O=C(CC1(CN2Cc3ccccc3C2=O)CCCCC1)Nc1cccnc1`, the “% Inhibition” value was -9% and the Z score came out at 1.21.

As for `COCCCNC(=O)C1Cc2cc(C(F)(F)F)ccc2N2CCN(CC(=O)N3CCOCC3)CC12` (stereo unspecified), the “% Inhibition” value is on record as -2% and the Z score was found to be 0.31.

Regarding `Cc1ccccc1[C@@H](O)CNC(=O)NCCC(=O)NC1CCCC1`, the “% Inhibition” value was 3% and the Z score was -0.49.

On to `C[C@H]1Cc2ccccc2N1C(=O)CN1CCN(C(=O)c2cccc(F)c2)CC1`, for which the “% Inhibition” value turned out to be 2% and the Z score is -0.25.

`N#CC1(NC(=O)CCOc2ccccc2)CCC1`: the “% Inhibition” value amounted to 8% and the Z score is -0.9.

In the case of `CCc1nn(C)c(Cl)c1CN1CCC[C@H](CNC(=O)c2cc(C)on2)C1`, the “% Inhibition” value was -6% and the Z score worked out at 1.16.

Source of the values: ChEMBL document CHEMBL4888484, “Replenishing the malaria drug discovery pipeline: Screening and hit evaluation of the MMV Hit Generation Library 1 (HGL1) against asexual blood stage Plasmodium falciparum ,using a nano luciferase reporter read-out” (2022).
